This is one part of the list. The full chains were built here from the parent and the listed change. Values near 0.05 are background.
B1: TEV protease; numbered along this chain (parent)
chain: MGESLFKGPRDYNPISSSICHLTNESDGHTTSLYGIGFGPFIITNKHLFRRNNGTLVVQSLHGVFKVKDTTTLQQHLVDGRDMIIIRMPKDFPPFPQKLKFREPQREERICLVTTNFQTKSMSSMVSDTSCTFPSGDGIFWKHWIQTKDGQCGSPLVSTRDGFIVGIHSASNFTNTNNYFTSVPKNFMELLTNQEAQQWVSGWRLNADSVLWGGHKVFMVKPEEPFQPVKEATQL

Variants of: B1
Assay: raw area under fraction-flipped curve 0-4 h after induction (AUC4h, not background-subtracted), DNA-recorder readout of cleavage of the substrate (dimensionless); higher = more cleavage of the substrate by the protease variant
Settings: temperature: 34 °C; time window: 0-4 h after rhamnose induction
Method: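 In vivo DNA recorder in E. coli TOP10(DE3) ΔrhaA at 34 °C. Each TEVp single-site mutant (parent TEVp 0) is paired with a single-site variant of the 7-mer TEVs (canonical ENLYFQ|S). The substrate sits between flexible linkers in a Bxb1-sfGFP-TEVs-SsrA fusion, so cleavage stabilises Bxb1 and speeds flipping of a recombination array, read by NGS. The value is the raw area under the fraction-flipped curve over 0-4 h after rhamnose induction (AUC4h), with ≥20 reads per time point. It is not background-subtracted; inactive controls average about 0.047.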
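Note: Bxb1 expression induced with 0.2% (w/v) L-rhamnose at OD600 near 0.5, cultures sampled hourly, flipped fraction per protease–substrate barcode pair counted by paired-end Illumina sequencing.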

| Variant | area with substrate ENCYFQS | area with substrate ENDYFQS | area with substrate ENEYFQS | area with substrate ENFYFQS | area with substrate ENGYFQS | area with substrate ENHYFQS | area with substrate ENKYFQS | area with substrate ENMYFQS | area with substrate ENNYFQS | area with substrate ENPYFQS | area with substrate ENQYFQS | area with substrate ENRYFQS | area with substrate ENSYFQS | area with substrate ENTYFQS | area with substrate ENVYFQS | area with substrate ENWYFQS | area with substrate ENYYFQS | area with substrate ENIYFQS | area with substrate ENAYFQS |
| --- | --- | --- | --- | --- | --- | --- | --- | --- | --- | --- | --- | --- | --- | --- | --- | --- | --- | --- | --- |
| E223K | 0.0694 | 0.0589 | 0.0823 | 0.0553 | 0.0576 | 0.0559 | 0.0743 | 0.0808 | 0.0471 | 0.0511 | 0.0477 | 0.0565 | 0.0541 | 0.0586 | 0.103 | 0.0309 |  |  |  |
| L191Y | 0.0619 | 0.0683 |  |  | 0.0609 |  | 0.0291 | 0.0641 | 0.0576 |  | 0.0663 |  | 0.0791 | 0.0652 |  | 0.0119 | 0.0456 |  |  |
| H76R | 0.0703 | 0.0537 | 0.0516 | 0.0535 |  |  | 0.0597 | 0.0678 | 0.0762 | 0.0597 | 0.0696 |  | 0.0688 | 0.0702 | 0.0644 | 0.0459 | 0.0694 | 0.0691 |  |
| Q234N |  | 0.0605 | 0.0606 | 0.0648 | 0.0665 |  | 0.0473 | 0.0639 | 0.0833 |  | 0.0727 |  | 0.0632 | 0.0632 | 0.0667 |  |  | 0.113 |  |
| Q234W | 0.0439 | 0.0606 | 0.0549 | 0.0539 | 0.0639 | 0.0517 | 0.0692 | 0.0669 |  |  | 0.0481 |  | 0.0765 |  |  |  | 0.0616 |  | 0.0497 |
| Q227K |  | 0.0606 | 0.0669 | 0.065 | 0.044 | 0.0426 | 0.069 | 0.121 | 0.0712 | 0.0447 | 0.0543 |  | 0.0644 | 0.0456 | 0.0909 |  |  |  |  |
| D82N | 0.0534 | 0.0694 | 0.0821 | 0.0929 |  | 0.0728 | 0.0768 | 0.0586 | 0.05 | 0.0603 | 0.0674 | 0.0643 | 0.0579 | 0.0534 | 0.0687 | 0.0481 |  | 0.0565 |  |
| W203G | 0.0525 | 0.058 | 0.0619 | 0.0563 | 0.064 |  |  | 0.0785 | 0.103 |  | 0.0645 |  | 0.0597 | 0.0472 |  |  |  | 0.0667 |  |
| N116S | 0.0772 | 0.0596 |  |  | 0.0614 | 0.0621 | 0.0565 |  |  | 0.052 | 0.0668 | 0.0314 |  |  | 0.0737 | 0.001 | 0.0646 | 0.105 |  |
| Q194F | 0.0578 |  | 0.0739 | 0.0454 |  | 0.0566 | 0.0511 |  | 0.0506 |  | 0.0819 |  | 0.0616 |  | 0.0808 | 0.0266 |  | 0.0978 |  |
| D161W | 0.0406 | 0.0542 | 0.0603 | 0.0573 | 0.049 | 0.0508 | 0.0555 | 0.0439 | 0.0603 | 0.0498 | 0.0436 |  | 0.0422 | 0.0511 | 0.061 | 0.0517 | 0.0583 | 0.055 |  |
| F65L | 0.0645 | 0.0607 | 0.0774 | 0.0676 | 0.0603 | 0.0459 | 0.05 |  | 0.0692 |  | 0.058 | 0.0646 | 0.0389 |  | 0.0249 |  |  |  |  |
| S60H | 0.0546 | 0.0529 | 0.0593 | 0.0327 | 0.0708 | 0.0791 | 0.0563 |  | 0.063 |  | 0.0756 | 0.0576 | 0.0625 | 0.0565 | 0.0908 | 0.0411 |  | 0.11 |  |

From the supplement of paper PMC12217912
